{
  "source": "PubChem BioAssay (NCI)",
  "tested_on": "MDA-MB-468 breast",
  "experiment": "DTP human tumour cell line panel, 48 h",
  "note": "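Growth conditions: 96-well plates. Treatment: test compound, 48 hours, 5 concentrations. Analysis: linear interpolation between bracketing concentrations; unreached endpoints set to highest concentration. The concentration for 50% growth inhibition is given as GI50. TGI: total growth inhibition.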",
  "data": [
    {"compound": "CN[C@H]1C[C@@H]2O[C@@](C)([C@H]1OC)n1c3ccccc3c3c4c(c5c6ccccc6n2c5c31)C(=O)NC4", "values": [
      {"measurement": "GI50", "result": 1.66, "unit": "nM"},
      {"measurement": "TGI", "result": 13.5, "unit": "nM"}
    ]}
  ]
}
